The other results are listed elsewhere or left out. The full chains were built here from the parent and the listed change. Values near 0.05 are background.
B1: TEV protease; numbered along this chain (parent)
chain: MGESLFKGPRDYNPISSSICHLTNESDGHTTSLYGIGFGPFIITNKHLFRRNNGTLVVQSLHGVFKVKDTTTLQQHLVDGRDMIIIRMPKDFPPFPQKLKFREPQREERICLVTTNFQTKSMSSMVSDTSCTFPSGDGIFWKHWIQTKDGQCGSPLVSTRDGFIVGIHSASNFTNTNNYFTSVPKNFMELLTNQEAQQWVSGWRLNADSVLWGGHKVFMVKPEEPFQPVKEATQL
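Note: Bxb1 expression induced with 0.2% (w/v) L-rhamnose at OD600 near 0.5, cultures sampled hourly, flipped fraction per protease–substrate barcode pair counted by paired-end Illumina sequencing.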

Variants of: B1
Assay: raw area under fraction-flipped curve 0-4 h after induction (AUC4h, not background-subtracted), DNA-recorder readout of cleavage of the substrate (dimensionless); higher = more cleavage of the substrate by the protease variant
Settings: temperature: 34 °C; time window: 0-4 h after rhamnose induction
Experimental: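 In vivo DNA recorder in E. coli TOP10(DE3) ΔrhaA at 34 °C. Each TEVp single-site mutant (parent TEVp 0) is paired with a single-site variant of the 7-mer TEVs (canonical ENLYFQ|S). The substrate sits between flexible linkers in a Bxb1-sfGFP-TEVs-SsrA fusion, so cleavage stabilises Bxb1 and speeds flipping of a recombination array, read by NGS. The value is the raw area under the fraction-flipped curve over 0-4 h after rhamnose induction (AUC4h), with ≥20 reads per time point. It is not background-subtracted; inactive controls average about 0.047.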
With MGESLFKGPRDYNPISSSICHLTNESDGHTTSLYGIGFGPFIITNKHLFYRNNGTLVVQSLHGVFKVKDTTTLQQHLVDGRDMIIIRMPKDFPPFPQKLKFREPQREERICLVTTNFQTKSMSSMVSDTSCTFPSGDGIFWKHWIQTKDGQCGSPLVSTRDGFIVGIHSASNFTNTNNYFTSVPKNFMELLTNQEAQQWVSGWRLNADSVLWGGHKVFMVKPEEPFQPVKEATQL [R50Y] the “area with substrate ECLYFQS” value was 0.142, the “area with substrate EDLYFQS” value was 0.152 and the “area with substrate EELYFQS” value was 0.163. The “area with substrate EFLYFQS” value was 0.109, the “area with substrate EKLYFQS” value was 0.149 and the “area with substrate EMLYFQS” value was 0.22. The “area with substrate ESLYFQS” value was 0.135, the “area with substrate ETLYFQS” value was 0.14 and the “area with substrate EVLYFQS” value was 0.0836. For the same variant, the “area with substrate EYLYFQS” value was 0.128. For MGESLFKGPRDYNPISSSICHLTNESDGHTTSLYGIGFGPFIITNKHLFRSNNGTLVVQSLHGVFKVKDTTTLQQHLVDGRDMIIIRMPKDFPPFPQKLKFREPQREERICLVTTNFQTKSMSSMVSDTSCTFPSGDGIFWKHWIQTKDGQCGSPLVSTRDGFIVGIHSASNFTNTNNYFTSVPKNFMELLTNQEAQQWVSGWRLNADSVLWGGHKVFMVKPEEPFQPVKEATQL [R51S], the “area with substrate ECLYFQS” value was 0.107, the “area with substrate EGLYFQS” value was 0.13 and the “area with substrate EMLYFQS” value was 0.109. The “area with substrate ERLYFQS” value was 0.0987, the “area with substrate ESLYFQS” value was 0.0984 and the “area with substrate EYLYFQS” value was 0.0766. For MGESLFKGPRDYNPISSSICHLTNESDGHTTSLYGIGFGPFIITNKHLFRRNNGTLEVQSLHGVFKVKDTTTLQQHLVDGRDMIIIRMPKDFPPFPQKLKFREPQREERICLVTTNFQTKSMSSMVSDTSCTFPSGDGIFWKHWIQTKDGQCGSPLVSTRDGFIVGIHSASNFTNTNNYFTSVPKNFMELLTNQEAQQWVSGWRLNADSVLWGGHKVFMVKPEEPFQPVKEATQL [V57E], the “area with substrate ECLYFQS” value was 0.124, the “area with substrate EGLYFQS” value was 0.0771 and the “area with substrate EILYFQS” value was 0.122. For the same variant, the “area with substrate EKLYFQS” value was 0.0745, the “area with substrate EMLYFQS” value was 0.106 and the “area with substrate EQLYFQS” value was 0.132. For the same variant, the “area with substrate ESLYFQS” value was 0.0988 and the “area with substrate EYLYFQS” value was 0.117. In the case of MGESLFKGPRDYNPISSSICHLTNESDGHTTSLYGIGFGPFIITNKHLFRRNNGTLQVQSLHGVFKVKDTTTLQQHLVDGRDMIIIRMPKDFPPFPQKLKFREPQREERICLVTTNFQTKSMSSMVSDTSCTFPSGDGIFWKHWIQTKDGQCGSPLVSTRDGFIVGIHSASNFTNTNNYFTSVPKNFMELLTNQEAQQWVSGWRLNADSVLWGGHKVFMVKPEEPFQPVKEATQL [V57Q], the “area with substrate ECLYFQS” value is reported as 0.0781, the “area with substrate ESLYFQS” value is reported as 0.114 and the “area with substrate EVLYFQS” value is reported as 0.102. For MGESLFKGPRDYNPISSSICHLTNESDGHTTSLYGIGFGPFIITNKHLFRRNNGTLVVQGLHGVFKVKDTTTLQQHLVDGRDMIIIRMPKDFPPFPQKLKFREPQREERICLVTTNFQTKSMSSMVSDTSCTFPSGDGIFWKHWIQTKDGQCGSPLVSTRDGFIVGIHSASNFTNTNNYFTSVPKNFMELLTNQEAQQWVSGWRLNADSVLWGGHKVFMVKPEEPFQPVKEATQL [S60G], the “area with substrate ECLYFQS” value was 0.102, the “area with substrate EILYFQS” value was 0.0833 and the “area with substrate EQLYFQS” value was 0.114. The “area with substrate ESLYFQS” value was 0.088. For MGESLFKGPRDYNPISSSICHLTNESDGHTTSLYGIGFGPFIITNKHLFRRNNGTLVVQSLHGVPKVKDTTTLQQHLVDGRDMIIIRMPKDFPPFPQKLKFREPQREERICLVTTNFQTKSMSSMVSDTSCTFPSGDGIFWKHWIQTKDGQCGSPLVSTRDGFIVGIHSASNFTNTNNYFTSVPKNFMELLTNQEAQQWVSGWRLNADSVLWGGHKVFMVKPEEPFQPVKEATQL [F65P], the “area with substrate ECLYFQS” value was 0.0486, the “area with substrate EDLYFQS” value was 0.0641 and the “area with substrate EELYFQS” value was 0.0536. For the same variant, the “area with substrate EFLYFQS” value was 0.0719, the “area with substrate EHLYFQS” value was 0.0468 and the “area with substrate EILYFQS” value was 0.043. For the same variant, the “area with substrate EKLYFQS” value was 0.0472, the “area with substrate ELLYFQS” value was 0.0454 and the “area with substrate EPLYFQS” value was 0.0528. For the same variant, the “area with substrate EQLYFQS” value was 0.0573, the “area with substrate ESLYFQS” value was 0.0481 and the “area with substrate ETLYFQS” value was 0.0332. For the same variant, the “area with substrate EVLYFQS” value was 0.0454, the “area with substrate EWLYFQS” value was 0.051 and the “area with substrate EYLYFQS” value was 0.0319. For MGESLFKGPRDYNPISSSICHLTNESDGHTTSLYGIGFGPFIITNKHLFRRNNGTLVVQSLHGVFAVKDTTTLQQHLVDGRDMIIIRMPKDFPPFPQKLKFREPQREERICLVTTNFQTKSMSSMVSDTSCTFPSGDGIFWKHWIQTKDGQCGSPLVSTRDGFIVGIHSASNFTNTNNYFTSVPKNFMELLTNQEAQQWVSGWRLNADSVLWGGHKVFMVKPEEPFQPVKEATQL [K66A], the “area with substrate ECLYFQS” value was 0.0912, the “area with substrate ESLYFQS” value was 0.0964 and the “area with substrate EVLYFQS” value was 0.107. For MGESLFKGPRDYNPISSSICHLTNESDGHTTSLYGIGFGPFIITNKHLFRRNNGTLVVQSLHGVFQVKDTTTLQQHLVDGRDMIIIRMPKDFPPFPQKLKFREPQREERICLVTTNFQTKSMSSMVSDTSCTFPSGDGIFWKHWIQTKDGQCGSPLVSTRDGFIVGIHSASNFTNTNNYFTSVPKNFMELLTNQEAQQWVSGWRLNADSVLWGGHKVFMVKPEEPFQPVKEATQL [K66Q], the “area with substrate ECLYFQS” value was 0.0757, the “area with substrate EDLYFQS” value was 0.15 and the “area with substrate EGLYFQS” value was 0.0777. The “area with substrate EILYFQS” value was 0.111, the “area with substrate EKLYFQS” value was 0.0906 and the “area with substrate EMLYFQS” value was 0.133. With MGESLFKGPRDYNPISSSICHLTNESDGHTTSLYGIGFGPFIITNKHLFRRNNGTLVVQSLHGVFYVKDTTTLQQHLVDGRDMIIIRMPKDFPPFPQKLKFREPQREERICLVTTNFQTKSMSSMVSDTSCTFPSGDGIFWKHWIQTKDGQCGSPLVSTRDGFIVGIHSASNFTNTNNYFTSVPKNFMELLTNQEAQQWVSGWRLNADSVLWGGHKVFMVKPEEPFQPVKEATQL [K66Y] the “area with substrate ECLYFQS” value was 0.115, the “area with substrate EGLYFQS” value was 0.0983 and the “area with substrate EKLYFQS” value was 0.123. For the same variant, the “area with substrate ELLYFQS” value was 0.098, the “area with substrate EMLYFQS” value was 0.101 and the “area with substrate EPLYFQS” value was 0.151. For the same variant, the “area with substrate EQLYFQS” value was 0.115 and the “area with substrate ERLYFQS” value was 0.109. For MGESLFKGPRDYNPISSSICHLTNESDGHTTSLYGIGFGPFIITNKHLFRRNNGTLVVQSLHGVFKVKDTTTLQMHLVDGRDMIIIRMPKDFPPFPQKLKFREPQREERICLVTTNFQTKSMSSMVSDTSCTFPSGDGIFWKHWIQTKDGQCGSPLVSTRDGFIVGIHSASNFTNTNNYFTSVPKNFMELLTNQEAQQWVSGWRLNADSVLWGGHKVFMVKPEEPFQPVKEATQL [Q75M], the “area with substrate ECLYFQS” value was 0.0949, the “area with substrate EGLYFQS” value was 0.0921 and the “area with substrate EMLYFQS” value was 0.113. For the same variant, the “area with substrate EVLYFQS” value was 0.0952. In the case of MGESLFKGPRDYNPISSSICHLTNESDGHTTSLYGIGFGPFIITNKHLFRRNNGTLVVQSLHGVFKVKDTTTLQQTLVDGRDMIIIRMPKDFPPFPQKLKFREPQREERICLVTTNFQTKSMSSMVSDTSCTFPSGDGIFWKHWIQTKDGQCGSPLVSTRDGFIVGIHSASNFTNTNNYFTSVPKNFMELLTNQEAQQWVSGWRLNADSVLWGGHKVFMVKPEEPFQPVKEATQL [H76T], the “area with substrate ECLYFQS” value is reported as 0.0566, the “area with substrate EGLYFQS” value is reported as 0.0493 and the “area with substrate EILYFQS” value is reported as 0.0697. For the same variant, the “area with substrate ERLYFQS” value was 0.0531 and the “area with substrate EWLYFQS” value was 0.0468. With MGESLFKGPRDYNPISSSICHLTNESDGHTTSLYGIGFGPFIITNKHLFRRNNGTLVVQSLHGVFKVKDTTTLQQHRVDGRDMIIIRMPKDFPPFPQKLKFREPQREERICLVTTNFQTKSMSSMVSDTSCTFPSGDGIFWKHWIQTKDGQCGSPLVSTRDGFIVGIHSASNFTNTNNYFTSVPKNFMELLTNQEAQQWVSGWRLNADSVLWGGHKVFMVKPEEPFQPVKEATQL [L77R] the “area with substrate ECLYFQS” value was 0.0533, the “area with substrate EELYFQS” value was 0.11 and the “area with substrate EGLYFQS” value was 0.0756. For the same variant, the “area with substrate EILYFQS” value was 0.0608, the “area with substrate EKLYFQS” value was 0.0626 and the “area with substrate ELLYFQS” value was 0.0779. For the same variant, the “area with substrate EMLYFQS” value was 0.0652, the “area with substrate EQLYFQS” value was 0.0653 and the “area with substrate ESLYFQS” value was 0.0757. For the same variant, the “area with substrate EVLYFQS” value was 0.0612 and the “area with substrate EWLYFQS” value was 0.0555.

From the supplement of paper PMC12217912
